{"source": "the supplement of paper PMC10126150", "note": "Sequences with one replicate were seen in a single cluster, so their values are uncertain.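 Also: ATP exposure 15 min at 22 °C before imaging.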"}
{"test_system": "ATP", "experiment": "switch fluorescence ratio, 500 uM ATP over buffer (Cy3 cluster intensity, sum of 5 cycles each) (fold (ratio)); higher = stronger signal-on switching upon ATP binding; sequences stand for … in TCGTCGGCAGCGTCAGATGTGTATAAGAGACAGTTTTTTTTTTTTTTTTTTTTTTTTT…TC", "details": "aptamer strand: ATP DNA aptamer (quencher-CACCTGGGGGAGTATTGCGGAGGAAGG + anchor), 100 nM annealed; ATP concentration: 500 uM; one replicate", "in_short": "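The quencher-labelled ATP aptamer, at 100 nM, was annealed to Cy3-labelled switching-strand clusters on a modified Illumina MiSeq flow-cell. The clusters were imaged in selection buffer, then after 15 min with 500 uM ATP at 22 °C, and this buffer/ATP cycle ran five times with NaOH stripping and re-annealing between runs. Per-cluster fluorescence ratios, summed target-cycle over summed buffer-cycle Cy3 intensity, were averaged per switch-domain sequence. Clusters outside 100-1000 RFU were excluded.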"}
{"sequence": "GCTCAATACA", "switch fluorescence ratio": 1.26}
{"sequence": "GCTCACGTAA", "switch fluorescence ratio": 2.23}
{"sequence": "GCTCACTTGC", "switch fluorescence ratio": 1.05}
{"sequence": "GCTCAGGCC", "switch fluorescence ratio": 1.02}
{"sequence": "GCTCATGTTT", "switch fluorescence ratio": 1.01}
{"sequence": "GCTCATTATG", "switch fluorescence ratio": 1}
{"sequence": "GCTCCAAAGA", "switch fluorescence ratio": 1.25}
{"sequence": "GCTCCCCATG", "switch fluorescence ratio": 1.08}
{"sequence": "GCTCCTATCG", "switch fluorescence ratio": 1.07}
{"sequence": "GCTCCTCTG", "switch fluorescence ratio": 1.17}
{"sequence": "GCTCCTGTCA", "switch fluorescence ratio": 1.07}
{"sequence": "GCTCCTTAAA", "switch fluorescence ratio": 1}
{"sequence": "GCTCGCCAGT", "switch fluorescence ratio": 0.975}
{"sequence": "GCTCGCTTAA", "switch fluorescence ratio": 1.18}
{"sequence": "GCTCGGCGGA", "switch fluorescence ratio": 0.991}
{"sequence": "GCTCGGTCTG", "switch fluorescence ratio": 0.989}
{"sequence": "GCTCGGTGTG", "switch fluorescence ratio": 1.02}
{"sequence": "GCTCGTATCC", "switch fluorescence ratio": 0.958}
{"sequence": "GCTCGTATTG", "switch fluorescence ratio": 0.995}
{"sequence": "GCTCTACTGC", "switch fluorescence ratio": 1.03}
{"sequence": "GCTCTAGGG", "switch fluorescence ratio": 1}
{"sequence": "GCTCTCAATG", "switch fluorescence ratio": 1.19}
{"sequence": "GCTCTTCTGC", "switch fluorescence ratio": 1.02}
{"sequence": "GCTCTTTATT", "switch fluorescence ratio": 0.995}
{"sequence": "GCTGAAGAAA", "switch fluorescence ratio": 0.996}
{"sequence": "GCTGAATATT", "switch fluorescence ratio": 0.966}
{"sequence": "GCTGAGCGGG", "switch fluorescence ratio": 0.961}
{"sequence": "GCTGAGTCGT", "switch fluorescence ratio": 0.965}
{"sequence": "GCTGCAAATA", "switch fluorescence ratio": 0.968}
{"sequence": "GCTGCACCGA", "switch fluorescence ratio": 1.05}
{"sequence": "GCTGCAGCTA", "switch fluorescence ratio": 1.02}
{"sequence": "GCTGCCGTGG", "switch fluorescence ratio": 0.991}
{"sequence": "GCTGCGCA", "switch fluorescence ratio": 1.1}
{"sequence": "GCTGCGTT", "switch fluorescence ratio": 0.984}
{"sequence": "GCTGCTGCAG", "switch fluorescence ratio": 0.966}
{"sequence": "GCTGGAACAT", "switch fluorescence ratio": 0.961}
{"sequence": "GCTGGAGCAA", "switch fluorescence ratio": 3.6}
{"sequence": "GCTGGCAAAG", "switch fluorescence ratio": 1}
{"sequence": "GCTGGCACGC", "switch fluorescence ratio": 1.03}
{"sequence": "GCTGGCTATT", "switch fluorescence ratio": 0.955}
{"sequence": "GCTGGGCCTC", "switch fluorescence ratio": 0.967}
{"sequence": "GCTGGGCTCC", "switch fluorescence ratio": 1.06}
{"sequence": "GCTGGGGATC", "switch fluorescence ratio": 0.983}
{"sequence": "GCTGGTGG", "switch fluorescence ratio": 0.97}
{"sequence": "GCTGGTGTAG", "switch fluorescence ratio": 1.01}
{"sequence": "GCTGTACAGC", "switch fluorescence ratio": 0.922}
{"sequence": "GCTGTACTTC", "switch fluorescence ratio": 1.07}
{"sequence": "GCTGTACTTG", "switch fluorescence ratio": 1}
{"sequence": "GCTGTATAGC", "switch fluorescence ratio": 1.04}
{"sequence": "GCTGTATG", "switch fluorescence ratio": 1.02}
{"sequence": "GCTGTCTAGA", "switch fluorescence ratio": 1.04}
{"sequence": "GCTGTGGCGG", "switch fluorescence ratio": 0.977}
{"sequence": "GCTGTGGTCG", "switch fluorescence ratio": 1.05}
{"sequence": "GCTGTTAGTC", "switch fluorescence ratio": 1.01}
{"sequence": "GCTGTTCGGC", "switch fluorescence ratio": 1.01}
{"sequence": "GCTTAAACCA", "switch fluorescence ratio": 1.03}
{"sequence": "GCTTAACTG", "switch fluorescence ratio": 0.968}
{"sequence": "GCTTACATAA", "switch fluorescence ratio": 1.11}
{"sequence": "GCTTACATTC", "switch fluorescence ratio": 1.01}
{"sequence": "GCTTATTGGA", "switch fluorescence ratio": 0.977}
{"sequence": "GCTTCACGGA", "switch fluorescence ratio": 1.02}
{"sequence": "GCTTCCGCGG", "switch fluorescence ratio": 1.37}
{"sequence": "GCTTCGCCTC", "switch fluorescence ratio": 1.55}
{"sequence": "GCTTCGCGTT", "switch fluorescence ratio": 1.11}
{"sequence": "GCTTCTATAC", "switch fluorescence ratio": 1.9}
{"sequence": "GCTTCTGGTA", "switch fluorescence ratio": 0.971}
{"sequence": "GCTTCTTCGT", "switch fluorescence ratio": 1.07}
{"sequence": "GCTTGAAGCG", "switch fluorescence ratio": 1.01}
{"sequence": "GCTTGACTTT", "switch fluorescence ratio": 0.94}
{"sequence": "GCTTGGAGCT", "switch fluorescence ratio": 0.997}
{"sequence": "GCTTTATTTG", "switch fluorescence ratio": 1.01}
{"sequence": "GCTTTCTGGG", "switch fluorescence ratio": 0.982}
{"sequence": "GCTTTTATGA", "switch fluorescence ratio": 0.992}
{"sequence": "GCTTTTCCAT", "switch fluorescence ratio": 0.958}
{"sequence": "GCTTTTTCAT", "switch fluorescence ratio": 0.975}
{"sequence": "GGAAAATTAC", "switch fluorescence ratio": 1.02}
{"sequence": "GGAAAATTCA", "switch fluorescence ratio": 0.967}
{"sequence": "GGAAAATTGC", "switch fluorescence ratio": 1.01}
{"sequence": "GGAAAATTGG", "switch fluorescence ratio": 0.924}
{"sequence": "GGAAACCCTC", "switch fluorescence ratio": 1.06}
{"sequence": "GGAAACCGAA", "switch fluorescence ratio": 1.18}
{"sequence": "GGAAAGAATC", "switch fluorescence ratio": 1.05}
{"sequence": "GGAAAGTCTT", "switch fluorescence ratio": 0.977}
{"sequence": "GGAAATAATG", "switch fluorescence ratio": 1.02}
{"sequence": "GGAAATTAAT", "switch fluorescence ratio": 0.975}
{"sequence": "GGAAATTG", "switch fluorescence ratio": 1.05}
{"sequence": "GGAACCTTCG", "switch fluorescence ratio": 3.08}
{"sequence": "GGAACTCTAT", "switch fluorescence ratio": 0.998}
{"sequence": "GGAAGACCAC", "switch fluorescence ratio": 1.07}
{"sequence": "GGAAGATGAA", "switch fluorescence ratio": 1.01}
{"sequence": "GGAAGCAACA", "switch fluorescence ratio": 1.16}
{"sequence": "GGAAGCCCCG", "switch fluorescence ratio": 1.01}
{"sequence": "GGAAGGGGTC", "switch fluorescence ratio": 1.06}
{"sequence": "GGAAGGTATA", "switch fluorescence ratio": 1.01}
{"sequence": "GGAAGTGCTC", "switch fluorescence ratio": 1.03}
{"sequence": "GGAAGTTGTT", "switch fluorescence ratio": 1.02}
{"sequence": "GGAATACATC", "switch fluorescence ratio": 1.08}
{"sequence": "GGAATAGATA", "switch fluorescence ratio": 0.98}
{"sequence": "GGAATATCGA", "switch fluorescence ratio": 0.985}
{"sequence": "GGAATATGGT", "switch fluorescence ratio": 0.969}
